The other results are listed elsewhere or left out.
T1: UNK ZnF1-3 (human, UniProt Q9C0B0 31-174)
T1 sequence: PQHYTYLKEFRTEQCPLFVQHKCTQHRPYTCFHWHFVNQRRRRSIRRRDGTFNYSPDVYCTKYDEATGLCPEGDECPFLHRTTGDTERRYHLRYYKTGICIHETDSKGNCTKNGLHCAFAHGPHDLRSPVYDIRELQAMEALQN

B1: chr2:5814250:5814251:-_ENSMUSG00000025816_ENSMUST00000102981|mus_hu|mus_mus_mus_hu_True|1_1 (ssRNA)
RNA: GGGAGUUCUACAGUCCGACGAUCUUCCUUUCCGGUUUCUGAAUUUCUGGUAGAACUGCACAGAAUGGUUUGAUAACUUCUAAAAAUUUGAUGCCCAUGGCUGCUGCUGGGGAGGCCCAGGGGGAAACCGCGGCCUCGCAGCUGCAACAGAGGAUUGAGCAUCA
B2: chr8:42798479:42798480:+_ENSG00000168172_ENST00000307602|hu_mus|FALSE|FALSE (ssRNA)
RNA: GGGAGUUCUACAGUCCGACGAUCCGAAUGCUCCCCAAUGAGGUUCACGUCAGGAAGGGUGAAAUCAUUAAUCUGCUGUCCUAAAAUCUCAUGAUUGUAAUCCAAGAUGCCUUUUAAAAUUUUCUUUAAAUUGCUGAUCUUUAACAACAGAGGAUUGAGCAUCA
B3: 41321216_41322438_582_CDS_ENSMUSG00000025016_ENSMUST00000025989|mouse|control|control (ssRNA)
RNA: GGGAGUUCUACAGUCCGACGAUCAUUAAAGCCUAUUUCAAGUUUUUUGUAGGUCCAAAGAUAGUAAUCUUCCCCAUUUUCAUCUGCUUCACCAACAAUACCCCAUAUUGGUAAGUCAUCUAUGUACAUCUGAUACCAAUAGUGCAACAGAGGAUUGAGCAUCA
B4: 99534180_99535334_2638_CDS_ENSG00000088387_ENST00000339416|human|control|control (ssRNA)
RNA: GGGAGUUCUACAGUCCGACGAUCUCUGGUGAGGACUCGGAACAGCUGGUUUAGGAUAGUGGGCAAGAAGGCGAUCAUCACGUGGCCUUCCAUCGCAUGCAGACUCUUAAGGUACUUUACAAGUUCGUUUCCUAAGGCUUGGGCCAACAGAGGAUUGAGCAUCA
B5: chr17:62499630:62499631:-_ENSG00000108654_ENST00000581693|hu_mus|FALSE|FALSE (ssRNA)
RNA: GGGAGUUCUACAGUCCGACGAUCAGCACCACCAUAGAUGCAAGUAGACUUCAAGCGACAAGCUCGACAAUAUUCAGCAGCCACUUGCUGCACCUGCUGUGCCAGUUCUCGAGUUGGUGCCAGCACCAAGCAAAUAGGCCCAUCCAACAGAGGAUUGAGCAUCA
B6: chr2:47387770:47387771:-_ENSG00000143933_ENST00000272298|hu_hu|FALSE|FALSE (ssRNA)
RNA: GGGAGUUCUACAGUCCGACGAUCAAGGUUUUAGGACAAUGACAGUAAGAUAAGGGAAGAAAACAUGGAGGAAUGAAGUCCUAAUUACUAUACAUGCAUAUUUUUUUGACAGUAGGGAGAAACCUUUUACAGAUAAGUUACAAACAACAGAGGAUUGAGCAUCA
B7: 138266329_138268266_2328_CDS_ENSG00000044115_ENST00000302763|human|control|control (ssRNA)
RNA: GGGAGUUCUACAGUCCGACGAUCAUGGUCUGCAAUGGUGCGGCCAAGCUUGUCCAUCCUGGAUCCUGCCUCAGCAAUUUUCUUGGCAGCACUGAUGACAUCCGAUGUAUUUUUGAGUGGUCCUUUACCUCGGGUAAAGUCUGUCAACAGAGGAUUGAGCAUCA
B8: chr1:58468927:58468928:-_ENSMUSG00000026034_ENSMUST00000148330|mus_mus|mus_mus_mus_hu_False|68_78 (ssRNA)
RNA: GGGAGUUCUACAGUCCGACGAUCAAUUACUGAAAAAGAUGUUCAUUACCUUAGCUAGGCCAUGUAUUUAAUAAAGCACCCAAACAAAAUAAACAUGGCAAUAUAAAAAUGUUAAGAAUUUACAAAGCUGUACAAAAUAACUUACAACAGAGGAUUGAGCAUCA
B9: chr1:39463905:39463906:+_ENSG00000174574_ENST00000432648|hu_hu|motif|central (ssRNA)
RNA: GGGAGUUCUACAGUCCGACGAUCUGAGGAGUGAGGUUGACUUUCCGAAGCACAAGCUUCACUCUGAUUAAGAACAACUUCGGAAUGUCUCCACCUCUGAUAACGACUAUAUUCUUGUUUUAUGUUCUGAAAAAUUUGCUCCGGCAACAGAGGAUUGAGCAUCA
B10: chr19:16212804:16212805:+_ENSG00000167460_ENST00000300933|hu_mus|hu_hu_hu_mus_False|38_108 (ssRNA)
RNA: GGGAGUUCUACAGUCCGACGAUCAACAAAUAUGCAAUGAAGGAAAGAUGUAACAUGGAACAGCAUUAAAGCUCAGUCAGAAGGCACAUGGGCAACAAUGACUAUUUCAGCAUUCUCGCUUGGAAUGCUUAAAGACAAUCUGUUCAACAGAGGAUUGAGCAUCA
B11: chrX:98862621:98862622:+_ENSMUSG00000034160_ENSMUST00000044475|mus_hu|mus_mus_mus_hu_False|8_88 (ssRNA)
RNA: GGGAGUUCUACAGUCCGACGAUCCUGCAUCUCCUUUAGAGUGUUUCCCAUAUUGGAGUAGGCAUCAGCAAAGGUAGGACUGAUUCGAAUAGCCUCCUUAUAAUGCAUCAGAGCUUCCUGCAGUUUUCCCUGCUGUUGCAGUACCAACAGAGGAUUGAGCAUCA
B12: 49670665_49670785_2326_CDS_ENSG00000102935_ENST00000562871|human|control|control (ssRNA)
RNA: GGGAGUUCUACAGUCCGACGAUCGUGGCACUGCAGCUCCACCUCGGUGCUGAAGGUCUCCCCACAGAAGAUGCACUUGUGAGCCUUGGCCGGGUUGCCCAGGUGGCUGUGUUUGACGUGCACCUGCAGGUCAGCCUCCUUGCGCAACAGAGGAUUGAGCAUCA
B13: chr5:146773406:146773407:-_ENSG00000113657_ENST00000343218|hu_mus|FALSE|FALSE (ssRNA)
RNA: GGGAGUUCUACAGUCCGACGAUCGAUCGCAUGCAUGUAAGUGGGGGUGGGGUGGGGGUGGGGUUCAAAGAAAUUGAGAGUAUGCAAAAACAGAAACCAAAGCAAUUCAUAAAGCUAGGCAAGCGAGCAUAACAUUGGGAAACACAACAGAGGAUUGAGCAUCA
B14: chr18:67805652:67805653:+_ENSMUSG00000024537_ENSMUST00000025418|mus_mus|FALSE|FALSE (ssRNA)
RNA: GGGAGUUCUACAGUCCGACGAUCGUACUUAAUAAAGAUGGACCUUAACUGAAGCACCACUAGCUUCUUUGACGGUAAGGAAUACACUUCAGUAUUUAUACUGAGCUCAUUUGAAUUUUCUUCUUCAGUUGCAUAUGGAUUGUUCAACAGAGGAUUGAGCAUCA
B15: chr1:65217810:65217811:-_ENSMUSG00000025950_ENSMUST00000097709|mus_hu|motif|central (ssRNA)
RNA: GGGAGUUCUACAGUCCGACGAUCAGCUUCUGCAGCAUCCUUGGUGACUUGGUCGUUGGUGGCAUCACGAUUCUCGGUGCCGGAAUCAUAGCUAUGUAGAUCCAAUUCCACGUAGGGAAAAAUGAGUUUCUCUUUAAUCAAUUCCAACAGAGGAUUGAGCAUCA
B16: chr3:87734452:87734453:+_ENSMUSG00000048039_ENSMUST00000055984|mus_hu|FALSE|FALSE (ssRNA)
RNA: GGGAGUUCUACAGUCCGACGAUCCCGGAAGCGUCCGGAGCCGGAUGCGGAAAUCGGUGCGCGCCGACGAAGCCCGGGAAGGCAGGCGCGCGGGUUAGAACGCGCCAGAGGUCGGCGCGCGCACACCCGCACCGCCCCGACCCCCAACAGAGGAUUGAGCAUCA
B17: chr12:39756943:39756944:-_ENSG00000139116_ENST00000544797|hu_mus|FALSE|FALSE (ssRNA)
RNA: GGGAGUUCUACAGUCCGACGAUCGGUUUGGCUGUUACCCCCAAGGGAAUCCUGCAAGAGUCUUGUCAGCUUAGAGUCUCUGUAAGGGACAUGGGUGGCUCUCUUGCUCUUGUCCCCCAAGGCGCUGAUUACAUUCCCAAGAGCCAACAGAGGAUUGAGCAUCA
B18: chr1:182352875:182352876:-_ENSG00000135821_ENST00000339526|hu_mus|FALSE|FALSE (ssRNA)
RNA: GGGAGUUCUACAGUCCGACGAUCAUCCACACAUCCAUAUAUAUAUAACUUUUUUGUUUUUAACAUUUAAAUAUAAAAAUACUACUCUGCUUUGUGUUAUGAACGGAGGACCAAGAAAUGCCAACUUUUUUCUUCCUUCACAGUCAACAGAGGAUUGAGCAUCA
B19: chr4:57314706:57314707:+_ENSG00000128050_ENST00000264221|hu_mus|hu_hu_hu_mus_True|98_98 (ssRNA)
RNA: GGGAGUUCUACAGUCCGACGAUCCAGAAUUUCAAAAAUAGCCUGUGUGGCAUGACUCAUGAUGUCCACUUCAGUCUGCCCUAUAACAAGGCCAGCAAAACAGAAUUUUGCAGCAAUGAGUUGCUCCUCAGACCACUGUGGAUCCAACAGAGGAUUGAGCAUCA
B20: chrX:77155053:77155054:+_ENSG00000131174_ENST00000481445|hu_mus|FALSE|FALSE (ssRNA)
RNA: GGGAGUUCUACAGUCCGACGAUCCGAACUUGGAGACGGCUUAGUGCGUUUUUGGCUAAGGGCAACAUCGCGGAGACGAAGAUGGAACUGCGGCGACUAUGCUGCUGCCUUGGUGCAAAUUCACCCCAGCUACCCUUGCAAAGCCAACAGAGGAUUGAGCAUCA
B21: 76477308_76478351_561_CDS_ENSMUSG00000002731_ENSMUST00000002808|mouse|control|control (ssRNA)
RNA: GGGAGUUCUACAGUCCGACGAUCAGCCGGUCCUCCUUCCUGGGAAAGGGUAUAUUCAGGAAGUCGCCAGCCAUGGUGAAUUGCUAAUUCCUGUAAUGAGCCAAUUGGAUUCAGCUGGUUCUUCGGCUGUUUGGAUGGAUCAGGCAACAGAGGAUUGAGCAUCA
B22: chr3:119236079:119236080:+_ENSG00000113845_ENST00000264244|hu_mus|FALSE|FALSE (ssRNA)
RNA: GGGAGUUCUACAGUCCGACGAUCGGCCUUCCAUUCCUUCUGCCUUCUCUCCUGAACCGUCUCACCGGAGUACUUCUCCAGGGCCAUCAGCAAGCUUCCCAUGGGCGCGCCCAACAACGCUCCAAUUAUACUACCAGCCACCAGCAACAGAGGAUUGAGCAUCA

Each binder was assayed against T1, UNK ZnF1-3 (assay: nsRBNS (natural sequence RNA bind-n-seq); RBNS binding buffer (assumed for nsRBNS): 25 mM Tris pH 7.5, 150 mM KCl, 3 mM MgCl2, 0.01% Triton X-100, 500 ug/ml BSA, 20 U/ml SUPERase-In, 4 C; UNK is unkempt and MSI1 is Musashi-1; names of the RNAs are library labels; protein concentration not given here; high values mean tight binding).
B1 showed a binding signal of 1.07 enrichment R. B2 gave a binding signal of 1.36 enrichment R. For B3, the binding signal was 0.588 enrichment R. In the case of B4, the binding signal is reported as 1.02 enrichment R. Work on B5 yielded a binding signal of 1.67 enrichment R. B6 gave a binding signal of 1.8 enrichment R. For B7, the binding signal was 0.394 enrichment R. For B8, the binding signal was 2.58 enrichment R. B9 showed a binding signal of 0.767 enrichment R. Binder B10 has a binding signal of 0.955 enrichment R. Work on B11 yielded a binding signal of 0.844 enrichment R. With B12 the binding signal was 0.376 enrichment R. Binder B13 has a binding signal of 1.86 enrichment R. For B14, the binding signal was 0.639 enrichment R. In the case of B15, the binding signal is reported as 1.06 enrichment R. Work on B16 yielded a binding signal of 0.351 enrichment R. B17 gave a binding signal of 0.773 enrichment R. In the case of B18, the binding signal is reported as 2.48 enrichment R. B19 showed a binding signal of 0.888 enrichment R. With B20 the binding signal was 0.92 enrichment R. B21 gave a binding signal of 0.806 enrichment R. Work on B22 yielded a binding signal of 1.24 enrichment R.

Reference: publication PMC12136788
